Measurements taken from the supplement of paper PMC3334620.
The full ranking holds about 33,000 sequences; the median of “E-score (-0.5 to 0.5)” is about -0.04, and the highest 2% start at about 0.36. This is one part of the list.

The sequences below were run against T1, Hmlalpha2 (UniProt P0CY09) (assay: PBM E-score (8-mer binding enrichment) (E-score (-0.5 to 0.5)); higher = stronger / more preferred TF binding; most listed sequences are background and not binding sites). Conditions: protein concentration: 200 nM; construct: GST-full length.
T1 sequence: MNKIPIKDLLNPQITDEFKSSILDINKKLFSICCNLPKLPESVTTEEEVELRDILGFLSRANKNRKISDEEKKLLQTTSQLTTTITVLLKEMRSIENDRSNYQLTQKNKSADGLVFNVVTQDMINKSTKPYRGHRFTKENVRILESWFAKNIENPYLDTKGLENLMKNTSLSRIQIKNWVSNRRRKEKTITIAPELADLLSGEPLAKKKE
Method in brief: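 Bound GST-tagged yeast transcription factors, applied at about 100-200 nM to double-stranded universal all-10-mer Agilent arrays, were detected with fluorescent anti-GST. Scans were normalised with masliner. A modified Wilcoxon-Mann-Whitney statistic, the E-score, was assigned to each ungapped eight-base word pooled with its reverse complement by the Universal PBM Analysis Suite.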

| Sequence | PBM E-score |
| --- | --- |
| CAAAATTA | 0.192 |
| CCCCAAGG | -0.344 |
| CTGCTTCA | -0.187 |
| ATCCTTGA | -0.211 |
| CGAGATGC | 0.0153 |
| ACCCTCAA | -0.0829 |
| GGGACCCA | -0.31 |
| ATATCAGG | 0.00656 |
| AATTTCCG | -0.101 |
| ATTTCAAA | 0.0279 |
| AATAGCTG | 0.0578 |
| CACGCGCA | 0.0754 |
| CCTCCGCC | -0.261 |
| GGTGGGAA | -0.191 |
| CTATAGTA | 0.0306 |
| AGTAGGCG | -0.102 |
| CAACTCGA | 0.117 |
| ACGACTGA | -0.125 |
| TACTGTAA | 0.137 |
| CGCCATGA | -0.0864 |
| ATTGTCTC | -0.0878 |
| TGAAACCA | -0.0558 |
| AGCCTTAT | -0.168 |
| GACGGACA | -0.108 |
| GGGATCAA | -0.0102 |

| Sequence | PBM E-score |
| --- | --- |
| CGGTGGAG | -0.362 |
| CTCAAGCC | -0.201 |
| CGGCCGAA | -0.132 |
| GAGAGAGC | -0.232 |
| CTATCCAG | -0.15 |
| AGTAGCTA | 0.0477 |
| GAATGCGA | -0.108 |
| AGCATACA | 0.213 |
| GGTAGCAC | -0.229 |
| GTTTCGGA | -0.0145 |
| AAGTAATT | 0.256 |
| AGGCCGTG | 0.0258 |
| ATTATTTC | 0.0932 |
| CCTCCCAG | -0.252 |
| CACAACGC | 0.19 |
| AATTGCAA | 0.0289 |
| CCCAGCGC | -0.138 |
| CATGCGCC | -0.0099 |
| AACAGGTT | 0.11 |
| CAATCAGC | -0.132 |
| AGTTCATG | 0.109 |
| ATGACGTC | -0.0603 |
| AATTGATG | 0.168 |
| AAGGTCTC | -0.0732 |
| ATCTAAAC | -0.0363 |

| Sequence | PBM E-score |
| --- | --- |
| GCAACGAA | 0.15 |
| TTCGCAAA | 0.115 |
| AACCCCTG | -0.348 |
| ACTGCCAA | -0.0531 |
| AGTTGATC | -0.055 |
| AGGAGAAT | -0.143 |
| ACGAACGA | 0.206 |
| AGAATATC | -0.0864 |
| GTTTGTGA | 0.0957 |
| AGACATGG | 0.21 |
| AGACGTGA | 0.0591 |
| ATCAATGG | -0.229 |
| CGTCATGC | -0.00095 |
| CCGATAGG | -0.181 |
| AACTGAGC | -0.299 |
| AAACTTAA | 0.256 |
| CCCGTTCC | -0.201 |
| AGTTAGGG | -0.259 |
| ATTACGAC | 0.229 |
| GAGTCCCA | -0.266 |
| AGAACACC | 0.0993 |
| CTACATTA | 0.229 |
| CACAAACA | 0.239 |
| ATCTAATG | -0.077 |
| CCATTAGA | -0.289 |

| Sequence | PBM E-score |
| --- | --- |
| ACACAAGA | 0.291 |
| AATCTTCC | -0.115 |
| GAGATTCC | -0.218 |
| AGAAGTCT | -0.0753 |
| ATGTTAGG | 0.165 |
| CACACGCG | 0.264 |
| CCTTCAGA | -0.166 |
| CCGGACGA | -0.0406 |
| AGACCGGG | -0.272 |
| CCCGGGCA | -0.285 |
| CTCGAATC | -0.206 |
| CATGTCCG | -0.0437 |
| CTACCTCA | -0.172 |
| AGCGCTAG | -0.0896 |
| ACGCAAGG | 0.185 |
| CACCGGTC | -0.275 |
| AAATCCTT | -0.0827 |
| AGGGTTGA | -0.0378 |
| CAGTAGGA | -0.195 |
| TACCGGCA | 0.0228 |
| ATAACAGA | 0.259 |
| AACAAAAC | 0.288 |
| ACCGACTG | -0.317 |
| GCCGTGGA | -0.216 |
| CGACACTA | -0.00101 |

| Sequence | PBM E-score |
| --- | --- |
| AGAACAAC | 0.0835 |
| CATTTATA | 0.113 |
| CTGGTTCA | 0.0589 |
| AAGCCCTT | -0.211 |
| CATACCCA | 0.182 |
| AGGGGACG | -0.25 |
| AATAAGTA | 0.137 |
| GGGGTTCA | -0.279 |
| AGTCCAAC | -0.0711 |
| AGTCTTGC | 0.0218 |
| ATCTTTCA | 0.0227 |
| GCGCCCTA | -0.256 |
| AGATTTGA | 0.0464 |
| GTGTACGA | 0.212 |
| ACAAGCAC | 0.157 |
| AAAAAGTG | 0.0712 |
| CCGGTCGC | -0.136 |
| ATAGTGAT | -0.0723 |
| CCTGAAAA | -0.0981 |
| GCCCAGAC | -0.34 |
| ACTCTTAC | 0.167 |
| AAGTGTAG | 0.0742 |
| CGGTCCGA | -0.256 |
| TAGAAAGA | -0.075 |
| GACGCAGC | 0.00318 |

| Sequence | PBM E-score |
| --- | --- |
| AATAGGAG | -0.0208 |
| ACTAGGAG | -0.0601 |
| AATTGAAG | 0.0126 |
| AGAAGCGC | -0.0481 |
| CCAACTAC | 0.0725 |
| CCGCTCAG | -0.0603 |
| TATTAATA | 0.173 |
| CCATCGAG | 0.048 |
| CTCCTCGA | -0.141 |
| ACGGACAC | 0.117 |
| CAACACGG | 0.386 |
| CTTCGCGC | 0.00199 |
| GACACAGA | -0.00939 |
| AAGGGACT | -0.252 |
| CAGCCTAA | -0.0547 |
| AAGACTAT | -0.0495 |
| AAGATTCA | 0.0956 |
| CCACGCCG | -0.15 |
| AATGGTTA | 0.168 |
| CGATCCTC | -0.16 |
| TCCATAAA | -0.149 |
| ACGTACTC | 0.107 |
| CCCTATAA | -0.167 |
| GTCTCCAC | -0.178 |
| AAGGCAGA | -0.13 |

| Sequence | PBM E-score |
| --- | --- |
| CTCTGGTC | -0.143 |
| CAGCGATA | -0.186 |
| GATCCAGA | -0.0146 |
| AGATAATC | 0.0024 |
| CTGGACTA | -0.119 |
| CAGGTTCA | 0.0208 |
| CCAAGGAG | -0.276 |
| GCGATCTA | 0.0689 |
| CGTGTGAA | 0.347 |
| ATCGAGAC | -0.0984 |
| ATCGTGCA | 0.247 |
| AGCCATAT | -0.24 |
| GTTCATAA | 0.0277 |
| GTCTGTTA | 0.218 |
| AATCTACC | 0.132 |
| GACACCTA | -0.204 |
| ATTGATAG | 0.0987 |
| AGGGCGGC | -0.229 |
| ACACTTCT | 0.207 |
| CAGCAGTC | -0.215 |
| CCATATAC | 0.109 |
| ATATAACA | 0.384 |
